Experimental data: PMC5382322
These are yes or no findings as the source states them, for the method shown. Binding seen in cells or lysates may run through a third protein. Some binding calls cover weakened binding; strength is not graded here. Sequences can lack the tags named with a protein.

Sequences of proteins named here, by UniProt entry; tags and fusion partners are left off.
UniProt O97159: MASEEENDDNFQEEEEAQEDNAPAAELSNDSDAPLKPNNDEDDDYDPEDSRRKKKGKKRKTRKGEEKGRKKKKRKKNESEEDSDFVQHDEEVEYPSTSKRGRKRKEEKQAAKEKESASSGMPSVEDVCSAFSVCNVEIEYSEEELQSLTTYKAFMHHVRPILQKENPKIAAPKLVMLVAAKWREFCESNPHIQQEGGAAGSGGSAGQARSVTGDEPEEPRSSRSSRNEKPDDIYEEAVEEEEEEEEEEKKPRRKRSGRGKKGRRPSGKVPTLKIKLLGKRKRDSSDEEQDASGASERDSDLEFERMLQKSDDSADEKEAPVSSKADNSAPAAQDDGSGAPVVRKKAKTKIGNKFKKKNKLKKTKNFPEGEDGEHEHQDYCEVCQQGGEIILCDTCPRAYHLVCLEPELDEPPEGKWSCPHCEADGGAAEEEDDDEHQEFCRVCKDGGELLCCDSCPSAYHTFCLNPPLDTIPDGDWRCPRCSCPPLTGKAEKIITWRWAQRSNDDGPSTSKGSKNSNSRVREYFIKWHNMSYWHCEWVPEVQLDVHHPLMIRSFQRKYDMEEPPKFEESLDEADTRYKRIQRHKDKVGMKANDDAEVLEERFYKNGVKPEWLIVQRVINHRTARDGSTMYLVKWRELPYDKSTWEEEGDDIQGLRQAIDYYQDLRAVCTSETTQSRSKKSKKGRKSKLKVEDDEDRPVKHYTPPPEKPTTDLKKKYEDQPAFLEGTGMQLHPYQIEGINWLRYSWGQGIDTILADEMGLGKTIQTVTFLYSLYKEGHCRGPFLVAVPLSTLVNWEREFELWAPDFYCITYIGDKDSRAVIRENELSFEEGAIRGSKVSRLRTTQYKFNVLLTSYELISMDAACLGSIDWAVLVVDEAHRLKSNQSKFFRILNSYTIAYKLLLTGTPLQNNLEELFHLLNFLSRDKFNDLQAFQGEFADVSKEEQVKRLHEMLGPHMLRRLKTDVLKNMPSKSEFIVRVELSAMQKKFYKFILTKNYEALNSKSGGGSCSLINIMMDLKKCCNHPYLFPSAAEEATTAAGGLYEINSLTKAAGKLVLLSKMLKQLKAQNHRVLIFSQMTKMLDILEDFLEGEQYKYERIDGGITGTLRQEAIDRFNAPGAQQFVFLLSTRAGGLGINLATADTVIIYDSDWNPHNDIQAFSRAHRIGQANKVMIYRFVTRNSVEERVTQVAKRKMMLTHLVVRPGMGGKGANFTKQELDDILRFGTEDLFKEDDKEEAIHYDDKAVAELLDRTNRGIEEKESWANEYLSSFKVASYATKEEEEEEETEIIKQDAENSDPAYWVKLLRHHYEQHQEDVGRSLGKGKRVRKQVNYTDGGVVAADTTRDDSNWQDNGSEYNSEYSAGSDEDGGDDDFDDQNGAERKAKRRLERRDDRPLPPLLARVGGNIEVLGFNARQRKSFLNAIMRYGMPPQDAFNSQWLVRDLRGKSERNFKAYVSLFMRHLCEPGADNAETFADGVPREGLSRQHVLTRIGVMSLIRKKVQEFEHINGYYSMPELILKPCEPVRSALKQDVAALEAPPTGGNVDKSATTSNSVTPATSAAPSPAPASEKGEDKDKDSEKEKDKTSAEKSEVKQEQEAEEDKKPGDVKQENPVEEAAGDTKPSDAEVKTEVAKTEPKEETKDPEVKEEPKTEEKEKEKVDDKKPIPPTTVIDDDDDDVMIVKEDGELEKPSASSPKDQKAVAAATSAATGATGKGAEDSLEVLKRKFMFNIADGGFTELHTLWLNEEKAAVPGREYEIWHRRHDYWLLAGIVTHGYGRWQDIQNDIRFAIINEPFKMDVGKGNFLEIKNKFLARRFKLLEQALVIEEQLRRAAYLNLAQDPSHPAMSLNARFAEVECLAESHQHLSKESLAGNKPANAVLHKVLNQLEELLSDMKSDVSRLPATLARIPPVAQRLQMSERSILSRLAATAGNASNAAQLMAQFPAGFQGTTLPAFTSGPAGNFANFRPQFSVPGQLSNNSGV

Molecular target: T1, N-terminally FLAG-tagged EcR (Drosophila) (UniProt P34021)
T1 sequence: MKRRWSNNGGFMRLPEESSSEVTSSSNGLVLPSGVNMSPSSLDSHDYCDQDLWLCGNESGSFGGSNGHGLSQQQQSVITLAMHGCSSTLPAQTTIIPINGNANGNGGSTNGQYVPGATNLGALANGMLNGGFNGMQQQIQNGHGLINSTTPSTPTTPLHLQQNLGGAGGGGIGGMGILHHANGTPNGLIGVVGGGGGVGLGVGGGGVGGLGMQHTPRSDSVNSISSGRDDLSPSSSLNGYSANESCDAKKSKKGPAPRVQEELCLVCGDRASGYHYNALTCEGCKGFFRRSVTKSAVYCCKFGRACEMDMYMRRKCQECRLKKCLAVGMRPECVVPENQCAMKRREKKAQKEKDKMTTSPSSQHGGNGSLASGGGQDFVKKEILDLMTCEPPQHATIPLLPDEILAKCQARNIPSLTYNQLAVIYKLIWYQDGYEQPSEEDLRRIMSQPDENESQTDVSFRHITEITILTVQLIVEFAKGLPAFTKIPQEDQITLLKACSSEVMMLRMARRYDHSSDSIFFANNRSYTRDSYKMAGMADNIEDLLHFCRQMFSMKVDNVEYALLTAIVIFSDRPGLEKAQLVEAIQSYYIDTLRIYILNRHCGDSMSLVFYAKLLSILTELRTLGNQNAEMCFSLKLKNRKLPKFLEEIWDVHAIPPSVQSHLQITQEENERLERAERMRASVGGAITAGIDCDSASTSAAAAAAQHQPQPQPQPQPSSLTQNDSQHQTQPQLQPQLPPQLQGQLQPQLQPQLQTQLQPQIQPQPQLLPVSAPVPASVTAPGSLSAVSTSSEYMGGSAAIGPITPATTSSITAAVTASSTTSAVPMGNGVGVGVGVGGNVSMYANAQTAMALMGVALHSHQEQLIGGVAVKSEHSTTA
Test: co-IP; Sf9 cells co-infected with baculoviruses; whole-cell extract on FLAG agarose, 4 h at 4 °C; washed with high salt buffer (20 mM Hepes pH 7.6, 1000 mM KCl, 0.1% NP40, 10% glycerol); SDS-PAGE and Coomassie staining; also with ecdysone-treated cells and charcoal-treated serum

## dMi-2 (untagged, baculovirus-expressed) (from UniProt O97159 1-1982)
  binding: binds
